Test results from article PMC2376215 (The Journal of Biological Chemistry, 2008).

B1: p97 K251A,K524A (D1 and D2 Walker A mutant) (enzyme)
chain: not shown
B2: full-length rat wild-type p97 (enzyme)
chain: not shown
B3: p97 K524A (D2 Walker A mutant) (enzyme)
chain: not shown
B4: p97 R359A,R635A (SRH arginine finger mutant) (enzyme)
chain: not shown
B5: p97 K251A (D1 Walker A mutant) (enzyme)
chain: not shown

Target: the molecule itself
Experiment: native gel or EMSA

Binding result, binds:
B1, B2, B3, B4, B5
